# From PubChem BioAssay AID1347165 (National Center for Advancing Translational Sciences (NCATS), 2019)
# The campaign covered roughly 220,000 compounds. About 5,700 (2.6%) were called active. The inconclusive results got no clear call from the source; some entries with a clear call stand among them for comparison. Calls follow the shape of the dose curve; as a rule, active = well fitted inhibition curve with a large enough effect; inconclusive = small, poorly fitted or top-dose-only effect; inactive = no such curve, though single readings can be large or run the other way. Where the call is inconclusive, the potency comes from a doubtful curve fit.
# Target: Lysine-specific demethylase 5B (Homo sapiens) (UniProt Q9UGL1)
# Assay: Primary screen for KDM5B Histone Demethylases FDH-coupled qHTS; also: nearly all actives have a fitted effect of over 70% in size; as to activity change, negative = inhibition: 0% is about no effect
# Conditions: FDH-coupled NADH fluorescence (FDH is formaldehyde dehydrogenase); activity change, negative = inhibition: at 57.7 µM (top of the series) unless noted
# Outline: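 qHTS format, multiple compound concentrations. Buffer 50 mM HEPES pH 7.5/0.01% Tween-20; 200 nM KDM5BΔAP final; 10 min compound preincubation; substrate-mix levels 12.5 µM peptide, 25 µM α-KG, 0.25 mM NAD⁺; 30 min RT; ΔRFU.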
# Potency is read from the fitted curve at half-maximal effect; tags tell the direction and shape of the fitted curve.
# Sequence of UniProt Q9UGL1 (Q9UGL1 whole entry, looked up): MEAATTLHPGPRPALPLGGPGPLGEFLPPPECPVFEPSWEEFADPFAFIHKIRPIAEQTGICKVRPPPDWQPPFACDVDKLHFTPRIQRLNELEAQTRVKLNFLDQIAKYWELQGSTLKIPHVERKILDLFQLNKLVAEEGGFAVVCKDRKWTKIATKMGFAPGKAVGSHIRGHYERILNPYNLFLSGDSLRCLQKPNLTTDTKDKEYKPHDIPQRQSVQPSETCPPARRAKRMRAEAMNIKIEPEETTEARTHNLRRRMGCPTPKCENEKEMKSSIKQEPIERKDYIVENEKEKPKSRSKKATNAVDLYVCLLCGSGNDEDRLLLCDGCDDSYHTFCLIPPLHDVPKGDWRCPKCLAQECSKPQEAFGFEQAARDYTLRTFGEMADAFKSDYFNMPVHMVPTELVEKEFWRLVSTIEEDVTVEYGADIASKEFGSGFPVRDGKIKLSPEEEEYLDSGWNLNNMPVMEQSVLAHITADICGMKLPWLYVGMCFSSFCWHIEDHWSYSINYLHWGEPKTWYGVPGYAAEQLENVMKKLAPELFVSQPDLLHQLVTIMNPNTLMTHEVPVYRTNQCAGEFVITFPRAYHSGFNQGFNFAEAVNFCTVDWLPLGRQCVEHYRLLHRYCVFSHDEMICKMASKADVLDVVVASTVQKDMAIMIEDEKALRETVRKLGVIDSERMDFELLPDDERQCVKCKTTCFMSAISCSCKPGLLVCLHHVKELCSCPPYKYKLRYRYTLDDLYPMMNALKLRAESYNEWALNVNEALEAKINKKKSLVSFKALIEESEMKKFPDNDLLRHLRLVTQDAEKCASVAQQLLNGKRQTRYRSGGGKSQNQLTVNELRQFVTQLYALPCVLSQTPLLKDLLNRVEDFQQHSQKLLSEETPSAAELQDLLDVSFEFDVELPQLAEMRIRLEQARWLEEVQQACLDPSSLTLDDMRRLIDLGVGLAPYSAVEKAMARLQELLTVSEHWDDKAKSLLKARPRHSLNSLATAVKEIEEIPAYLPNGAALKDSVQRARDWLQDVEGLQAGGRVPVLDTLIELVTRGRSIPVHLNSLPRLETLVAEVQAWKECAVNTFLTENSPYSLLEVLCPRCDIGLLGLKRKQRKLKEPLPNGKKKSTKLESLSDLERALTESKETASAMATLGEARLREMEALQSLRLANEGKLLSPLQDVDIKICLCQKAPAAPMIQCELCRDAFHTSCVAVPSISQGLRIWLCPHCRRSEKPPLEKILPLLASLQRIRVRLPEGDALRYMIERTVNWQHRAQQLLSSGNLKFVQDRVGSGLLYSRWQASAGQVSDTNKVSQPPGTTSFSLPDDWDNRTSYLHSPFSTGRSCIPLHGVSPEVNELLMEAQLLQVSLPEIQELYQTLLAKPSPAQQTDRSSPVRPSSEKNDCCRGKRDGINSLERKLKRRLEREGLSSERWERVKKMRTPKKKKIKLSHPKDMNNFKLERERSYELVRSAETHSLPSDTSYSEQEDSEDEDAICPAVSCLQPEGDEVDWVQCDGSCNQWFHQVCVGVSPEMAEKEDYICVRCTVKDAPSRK
Structure (SMILES),Potency,"activity change, negative = inhibition"
CC1=C(c2ccc(C)cc2)S(=O)(=O)N(Cc2ccc(C(=O)Nc3ccccc3C)cc2)C1=O,"inconclusive: 15.8 µM [inhibitor, partial curve, poor fit]",–
CC(C)c1ccc(/C=C(/CC(=O)O)c2nc3ccccc3s2)cc1,"inconclusive: 22.4 µM [inhibitor, partial curve, poor fit]",–
COc1ccc(Cc2nc3nccc(-c4ccco4)n3n2)cc1,–,inactive: 1.5%
Cc1ccc(NC(=O)/C(C#N)=C/c2cc(C)n(-c3ccc(Br)cc3)c2C)cc1C,"inconclusive: 25.1 µM [inhibitor, partial curve, poor fit]",–
OC1(Cn2ccnc2)CCN(c2nccc(-c3cccnc3)n2)CC1,"inconclusive: 31.6 µM [inhibitor, partial curve, poor fit]",–
CN(C)c1ccc(C(=O)NC[C@H]2O[C@@H](CO)[C@@H](O)[C@H]2N2CCN(c3ccccc3)CC2)cc1,"inconclusive: 20 µM [inhibitor, single point]",–
COc1ccc(-c2nc3c(c(=O)[nH]2)CCN(C(=O)c2nccc4ccccc24)C3)cc1,"inconclusive: 10 µM [inhibitor, partial curve]",–
Cc1cc(C(F)(F)F)nn1CCNC(=O)c1csc(-c2cccs2)n1,"inconclusive: 14.1 µM [inhibitor, partial curve, poor fit]",–
Cc1ccc(C(=O)OCc2nnc(-c3ccc(Cl)cc3)o2)s1,–,inactive: -1.05%
CCN1CCN(c2oc(-c3cccc(Cl)c3)nc2C#N)CC1,"inconclusive: 1.78 µM [inhibitor, full curve, poor fit]",–
O=C(O)c1cc([N+](=O)[O-])ccc1OC(F)F,"inconclusive: 20 µM [inhibitor, partial curve, poor fit]",–
COc1ccc(NC(=O)c2cnn(-c3ccc(F)cc3F)c2C2CCN(C(=O)OC(C)(C)C)CC2)cc1Cl,"inconclusive: 17.8 µM [inhibitor, single point]",–
Cc1[nH]c(SCC(=O)NCCc2ccc3c(c2)OCCO3)nc1Cc1ccccc1,"inconclusive: 31.6 µM [inhibitor, single point]",–
Cc1ccc(C)c(OCCn2cnc3c2c(=O)n(C)c(=O)n3C)c1,–,inactive: 12%
Cn1c2c(c3ccccc31)CN(C(=O)NC1CCCCC1)CC2,"inconclusive: 28.2 µM [inhibitor, partial curve, poor fit]",–
COCCNc1ccc(-c2noc([C@@H]3CCCN3Cc3cc(OC)c(OC)c(OC)c3)n2)cn1,"inconclusive: 20 µM [inhibitor, single point]",–
CCCOc1ccc(C(=O)Nc2ccc3nn(-c4ccc(OC)c(Cl)c4)nc3c2)cc1,"inconclusive: 14.1 µM [inhibitor, partial curve, poor fit]",–
CC1(COCC2CC2)COc2ccc(C(=O)NCc3cccnc3)cc2N1 (stereo not drawn),"inconclusive: 39.8 µM [inhibitor, partial curve, poor fit]",–
CN(C)Cc1nc(SCC(=O)Nc2ccc(F)c(F)c2)c2ccccc2n1,"inconclusive: 39.8 µM [inhibitor, single point]",–
COc1cccc2c1Oc1nc(-c3ccccc3)nc(SCC(=O)Nc3ccccc3)c1C2,"inconclusive: 31.6 µM [inhibitor, single point]",–
COCCCNC(=O)c1ccc(Cn2c(=O)c3ccccc3n(Cc3ccccc3C)c2=O)cc1,"inconclusive: 7.94 µM [inhibitor, partial curve, poor fit]",–
O=C(Cn1cccc1-c1nc(-c2ccc3c(c2)OCO3)no1)NCc1ccccc1Cl,"inconclusive: 17.8 µM [inhibitor, single point]",–
Cc1oc(C(O)c2ccccc2F)nc1C(=O)Nc1ccc2[nH]ccc2c1 (stereo not drawn),–,inactive: 0.102% [at 86.2 µM]

Structure (SMILES),Potency,"activity change, negative = inhibition"
COc1cccc(CC(=O)N2CC(CNc3ccccc3)C3(C2)CN(c2ccccc2)C3)c1 (stereo not drawn),active: 17.8 µM,–
CN(Cc1cncs1)C1CCc2ccccc21 (stereo not drawn),–,inactive: -20.1% [at 86.2 µM]
CCCCn1nnc(NC(=O)COc2ccc(C(C)(C)C)cc2)n1,"inconclusive: 39.8 µM [inhibitor, single point]",–
C/C(=C/C(=O)C(F)(F)F)N1CCN(Cc2ccccc2)CC1,–,inactive: 19.1%
CCNC(=O)CSc1ncnc2cc(-c3ccc(F)cc3)sc12,–,inactive: -9.64%
Cc1nc(CN2C[C@H](C(=O)Nc3ccc(F)cc3)C[C@@H]2c2ccc(F)cc2)cs1,"inconclusive: 35.5 µM [inhibitor, partial curve, poor fit]",–
Cc1nn(Cc2ccccc2)c(C)c1[C@@H]1C=C[C@@H](NC(=O)c2ccco2)C1,"inconclusive: 39.8 µM [inhibitor, partial curve, poor fit]",–
Nc1nccnc1C(=O)NCc1ccc(F)cc1,"inconclusive: 28.2 µM [inhibitor, partial curve, poor fit]",–
COc1ccc(CNC(=O)c2ccc(NC(=O)N3CCSc4ncccc43)cc2)cc1OC,"inconclusive: 35.5 µM [inhibitor, partial curve, poor fit]",–
O=C(NCc1ccc(Cl)nc1)c1ccc2ccnn2c1,active: 35.5 µM,–
COc1ccc(OC)c(-c2noc(N3CCN(c4ccc(C(C)=O)cc4)CC3)n2)c1,"inconclusive: 2 µM [inhibitor, full curve, poor fit]",–
COc1ccc(-c2oc3ncn4nc(COc5ccc(C)cc5)nc4c3c2-c2ccc(OC)cc2)cc1,"inconclusive: 28.2 µM [inhibitor, partial curve, poor fit]",–
O=C(NCc1cccs1)c1nc(-c2cc(Cl)cc(Cl)c2)c2ccccn12,"inconclusive: 3.16 µM [inhibitor, full curve, poor fit]",–
O=Cc1cccn1-c1ccc(Br)cc1,–,inactive: 19.2%
CC(C)C(C(=O)NC(c1ccccc1)C1CCCC1)c1ccccc1 (stereo not drawn),–,inactive: -5.4%
CCOc1ccc(NC(=O)CSc2nc3ccccc3c(=O)n2CC2CCCO2)cc1 (stereo not drawn),–,inactive: 14.7%
CN(Cc1ccsc1)C(=O)c1ccc(-c2ccccc2)cc1,–,inactive: 4.93%
O=C(NCC(F)(F)F)C1CCCN(c2nc3ncccc3o2)C1 (stereo not drawn),active: 22.4 µM,–
O=c1c2nnn(Cc3ccccc3)c2ncn1Cc1nc(-c2ccc(OC(F)(F)F)cc2)no1,–,inactive: 10.9%
CC1(C)CC(NC(=O)C2CCCC2)CC(C)(CNC(=O)C2CCCC2)C1 (stereo not drawn),"inconclusive: 39.8 µM [inhibitor, single point]",–
COc1ccc(-c2nc(C)nc3c2CN(Cc2ccc(NC(C)=O)cc2)CC3)cc1,active: 22.4 µM,–
COCCn1c(SCC(=O)Nc2ccc(C)cc2Br)nc2ccsc2c1=O,–,inactive: -9.75%
Brc1ccc(CN2CCC(c3nc4ncccc4[nH]3)CC2)cc1,inactive,–

Structure (SMILES),Potency,"activity change, negative = inhibition"
CC(C)CNC(=O)c1cc(C2CC2)nc2onc(C3CCNCC3)c12,"inconclusive: 79.4 µM [inhibitor, partial curve]",–
Cc1ccc(CNC(=O)c2ccccc2NCC(=O)N2CC(=O)Nc3ccccc32)cc1,"inconclusive: 14.1 µM [inhibitor, partial curve, poor fit]",–
Clc1ccc(Cl)c(NCc2nnc3n2CCCCC3)c1,–,inactive: -11.9%
O=C(c1ccccc1)N1CCN(C(=O)c2[nH]c3ccccc3c2Cl)CC1,–,inactive: 8.53%
Cc1ccccc1C(=O)N[C@H]1[C@H](O)[C@H](O)C[C@@H]1c1ccc(N2CCOCC2)nc1,active: 31.6 µM,–
CCCCN(C)S(=O)(=O)c1cc(-c2nc(-c3cccc(F)c3)no2)sc1C,–,inactive: 14.3%
O=C(CCc1cccs1)Nc1ccc(N2CCOCC2)cn1,"inconclusive: 39.8 µM [inhibitor, single point]",–
O=Cc1ccccc1OCc1ccccc1,–,inactive: -19.8%
CCN(CC)CCOC(=O)c1ccc(N=CC2=C(O)CC(C)(C)CC2=O)cc1,"inconclusive: 28.2 µM [inhibitor, single point]",–
CCCN1CCC2(CCN(C(C)=O)CC2)Oc2ccccc21,"inconclusive: 22.4 µM [inhibitor, partial curve, poor fit]",–
O=C(OCc1ccc(-c2ccccc2)cc1)c1cnc2ccccc2n1,–,inactive: -13.2%
O=C(NCCc1csc(-c2cccnc2)n1)c1ccccc1,"inconclusive: 17.8 µM [inhibitor, partial curve, poor fit]",–
CC(CCc1ccccc1)NC(=O)Cn1cccc1-c1nc(-c2ccc3c(c2)OCO3)no1 (stereo not drawn),"inconclusive: 35.5 µM [inhibitor, partial curve, poor fit]",–
CC(C)OC(=O)c1cc(-c2ccccc2)nc2ccccc12,"inconclusive: 39.8 µM [inhibitor, single point]",–
COC(=O)C1=CN(Cc2ccc(F)cc2)C=C(C(=O)OC)C1c1ccc(O)cc1,"inconclusive: 28.2 µM [inhibitor, partial curve, poor fit]",–
COC(=O)c1cnn(-c2ccc(C(=O)Nc3cccc(Cl)c3C)cc2)c1N,–,inactive: 2.62%
CC(=O)Oc1c(-c2ccc(NC(=O)CC(C)C)cc2)c(-c2ccc(F)cc2)nn1-c1ccc(F)cc1,active: 28.2 µM,–
CC(C)c1nc(N2CCN(C(=O)C(=O)N3CCOCC3)CC2)c(C#N)c2c1CCCC2,"inconclusive: 31.6 µM [inhibitor, partial curve, poor fit]",–
CNc1ncc(CN(C)C(=O)CCc2cc3n(n2)CCCNC3)cn1,"inconclusive: 31.6 µM [inhibitor, single point]",–
Cc1noc(C)c1C(=O)N1CCCCC1c1nc(CCOCC2CCCC2)no1 (stereo not drawn),–,inactive: -22.5%
CCCC(C(=O)NC12CC3CC(CC(C3)C1)C2)c1ccccc1 (stereo not drawn),–,inactive: 18.8%
O=C(c1ccc(Cl)cc1Cl)C(Br)C(O)C(Cl)(Cl)Cl (stereo not drawn),"inconclusive: 17.8 µM [inhibitor, partial curve, poor fit]",–
